# Experimental data as given in the supplement of paper PMC12230231.
# ± gives the standard deviation of the averaged measurements. Restriction of a single-cycle SIVsab GFP reporter by TRIM5α v1-loop variants in CRFK cells. Human variants: read share among cells still uninfected after two challenges over input, higher = gained restriction. Rhesus variants: share among infected cells over input, higher = lost restriction. Reporter dose not given per row. No active / inactive call per row; the paper calls a change when both replicates lie above its controls (mean + 2 SD of stop or wild-type variants, or the top frameshift score). Residues outside the varied loop are taken from Swiss-Prot. The paper reads the human single-substitution scores as noise; they and the rhesus combinations repeat poorly (rank correlation 0.3 to 0.4), indel scores repeat only for the top variants, rhesus substitutions well (0.9).
# Tested on: SIVsab (simian immunodeficiency virus of sabaeus monkeys), single-cycle GFP reporter, in CRFK cells
# Assay: enrichment among uninfected cells over input (fold); higher = stronger restriction
# Conditions: library: human / rhesus combinations
# Method: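 Pools of CRFK cells expressing variants of the TRIM5α v1 loop were challenged with the single-cycle reporter, sorted by GFP and sequenced; mean of two replicates.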
row,Sequence,enrichment
1,"MASGILVNVKEEVTCPICLELLTQPLSLDCGHSFCQACLTANHKKSMLDKGESSCPVCRISYQPENIRPNRHVANIVEKLREVKLSPEGQKVDHCARHGEKLLLFCQEDGKVICWLCERSQEHRGHHTFLTEEVAREYQVKLQAALEMLRQKQQEAEELEADIREEKASWKTQIQYDKTNVLADFEQLRDILDWEESNELQNLEKEEEDILKSLTNSETEMVQQTQSLRELISDLEHRLQGSVMELLQGVDGVIKRTENVTLKKPETFPKNQRRVFRAPDLKGMLEVFRELTDVRRYWVDVTVAPNNISCAVISEDKRQVSSPKPQIIYQARGTLFTFPTLVNFNYCTGILGSQSITSGKHYWEVDVSKKTAWILGVCAGFQPDAMCNIEKNENYQPKYGYWVIGLEEGVKCSAFQDSSFHTPSVPFIVPLSVIICPDRVGVFLDYEACTVSFFNITNHGFLIYKFSHCSFSQPVFPYLNPRKCGVPMTLCSPSS [human TRIM5α, 330-340 = QARGTLFTFPTLV]",0.0733 ± 0.047
2,"MASGILVNVKEEVTCPICLELLTQPLSLDCGHSFCQACLTANHKKSMLDKGESSCPVCRISYQPENIRPNRHVANIVEKLREVKLSPEGQKVDHCARHGEKLLLFCQEDGKVICWLCERSQEHRGHHTFLTEEVAREYQVKLQAALEMLRQKQQEAEELEADIREEKASWKTQIQYDKTNVLADFEQLRDILDWEESNELQNLEKEEEDILKSLTNSETEMVQQTQSLRELISDLEHRLQGSVMELLQGVDGVIKRTENVTLKKPETFPKNQRRVFRAPDLKGMLEVFRELTDVRRYWVDVTVAPNNISCAVISEDKRQVSSPKPQIIYGAPGTLYTFPSLVNFNYCTGILGSQSITSGKHYWEVDVSKKTAWILGVCAGFQPDAMCNIEKNENYQPKYGYWVIGLEEGVKCSAFQDSSFHTPSVPFIVPLSVIICPDRVGVFLDYEACTVSFFNITNHGFLIYKFSHCSFSQPVFPYLNPRKCGVPMTLCSPSS [human TRIM5α, 330-340 = GAPGTLYTFPSLV]",0.178 ± 0.1
3,"MASGILVNVKEEVTCPICLELLTQPLSLDCGHSFCQACLTANHKKSMLDKGESSCPVCRISYQPENIRPNRHVANIVEKLREVKLSPEGQKVDHCARHGEKLLLFCQEDGKVICWLCERSQEHRGHHTFLTEEVAREYQVKLQAALEMLRQKQQEAEELEADIREEKASWKTQIQYDKTNVLADFEQLRDILDWEESNELQNLEKEEEDILKSLTNSETEMVQQTQSLRELISDLEHRLQGSVMELLQGVDGVIKRTENVTLKKPETFPKNQRRVFRAPDLKGMLEVFRELTDVRRYWVDVTVAPNNISCAVISEDKRQVSSPKPQIIYGAPGTRFQTLTNFNYCTGILGSQSITSGKHYWEVDVSKKTAWILGVCAGFQPDAMCNIEKNENYQPKYGYWVIGLEEGVKCSAFQDSSFHTPSVPFIVPLSVIICPDRVGVFLDYEACTVSFFNITNHGFLIYKFSHCSFSQPVFPYLNPRKCGVPMTLCSPSS [human TRIM5α, 330-340 = GAPGTRFQTLT]",0.00798 ± 0.003
4,"MASGILVNVKEEVTCPICLELLTQPLSLDCGHSFCQACLTANHKKSMLDKGESSCPVCRISYQPENIRPNRHVANIVEKLREVKLSPEGQKVDHCARHGEKLLLFCQEDGKVICWLCERSQEHRGHHTFLTEEVAREYQVKLQAALEMLRQKQQEAEELEADIREEKASWKTQIQYDKTNVLADFEQLRDILDWEESNELQNLEKEEEDILKSLTNSETEMVQQTQSLRELISDLEHRLQGSVMELLQGVDGVIKRTENVTLKKPETFPKNQRRVFRAPDLKGMLEVFRELTDVRRYWVDVTVAPNNISCAVISEDKRQVSSPKPQIIYGAPGTLYTFQTLVNFNYCTGILGSQSITSGKHYWEVDVSKKTAWILGVCAGFQPDAMCNIEKNENYQPKYGYWVIGLEEGVKCSAFQDSSFHTPSVPFIVPLSVIICPDRVGVFLDYEACTVSFFNITNHGFLIYKFSHCSFSQPVFPYLNPRKCGVPMTLCSPSS [human TRIM5α, 330-340 = GAPGTLYTFQTLV]",0.0562 ± 0.032

# Same assay, conditions: library: insertions and deletions
row,Sequence,enrichment
1,"MASGILVNVKEEVTCPICLELLTQPLSLDCGHSFCQACLTANHKKSMLDKGESSCPVCRISYQPENIRPNRHVANIVEKLREVKLSPEGQKVDHCARHGEKLLLFCQEDGKVICWLCERSQEHRGHHTFLTEEVAREYQVKLQAALEMLRQKQQEAEELEADIREEKASWKTQIQYDKTNVLADFEQLRDILDWEESNELQNLEKEEEDILKSLTNSETEMVQQTQSLRELISDLEHRLQGSVMELLQGVDGVIKRTENVTLKKPETFPKNQRRVFRAPDLKGMLEVFRELTDVRRYWVDVTVAPNNISCAVISEDKRQVSSPKPQIIYGARQIIYGARGTRYQTFVNFNYCTGILGSQSITSGKHYWEVDVSKKTAWILGVCAGFQPDAMCNIEKNENYQPKYGYWVIGLEEGVKCSAFQDSSFHTPSVPFIVPLSVIICPDRVGVFLDYEACTVSFFNITNHGFLIYKFSHCSFSQPVFPYLNPRKCGVPMTLCSPSS [human TRIM5α, 7-codon duplication at 326]",0.197 ± 0.14
2,"MASGILVNVKEEVTCPICLELLTQPLSLDCGHSFCQACLTANHKKSMLDKGESSCPVCRISYQPENIRPNRHVANIVEKLREVKLSPEGQKVDHCARHGEKLLLFCQEDGKVICWLCERSQEHRGHHTFLTEEVAREYQVKLQAALEMLRQKQQEAEELEADIREEKASWKTQIQYDKTNVLADFEQLRDILDWEESNELQNLEKEEEDILKSLTNSETEMVQQTQSLRELISDLEHRLQGSVMELLQGVDGVIKRTENVTLKKPETFPKNQRRVFRAPDLKGMLEVFRELTDVRRYWVDVTVAPNNISCAVISEDKRQVSSPKPQIIYGARGTRYQTFVNFNYCTGILGSQCTGILGSQSITSGKHYWEVDVSKKTAWILGVCAGFQPDAMCNIEKNENYQPKYGYWVIGLEEGVKCSAFQDSSFHTPSVPFIVPLSVIICPDRVGVFLDYEACTVSFFNITNHGFLIYKFSHCSFSQPVFPYLNPRKCGVPMTLCSPSS [human TRIM5α, 8-codon duplication at 345]",0.366 ± 0.13
3,"MASGILVNVKEEVTCPICLELLTQPLSLDCGHSFCQACLTANHKKSMLDKGESSCPVCRISYQPENIRPNRHVANIVEKLREVKLSPEGQKVDHCARHGEKLLLFCQEDGKVICWLCERSQEHRGHHTFLTEEVAREYQVKLQAALEMLRQKQQEAEELEADIREEKASWKTQIQYDKTNVLADFEQLRDILDWEESNELQNLEKEEEDILKSLTNSETEMVQQTQSLRELISDLEHRLQGSVMELLQGVDGVIKRTENVTLKKPETFPKNQRRVFRAPDLKGMLEVFRELTDVRRYWVDVTVAPNNISCAVISEDKRQVSSPKPQIIYGARGTRYQTYQTFVNFNYCTGILGSQSITSGKHYWEVDVSKKTAWILGVCAGFQPDAMCNIEKNENYQPKYGYWVIGLEEGVKCSAFQDSSFHTPSVPFIVPLSVIICPDRVGVFLDYEACTVSFFNITNHGFLIYKFSHCSFSQPVFPYLNPRKCGVPMTLCSPSS [human TRIM5α, 3-codon duplication at 336]",0.24 ± 0.01
4,"MASGILVNVKEEVTCPICLELLTQPLSLDCGHSFCQACLTANHKKSMLDKGESSCPVCRISYQPENIRPNRHVANIVEKLREVKLSPEGQKVDHCARHGEKLLLFCQEDGKVICWLCERSQEHRGHHTFLTEEVAREYQVKLQAALEMLRQKQQEAEELEADIREEKASWKTQIQYDKTNVLADFEQLRDILDWEESNELQNLEKEEEDILKSLTNSETEMVQQTQSLRELISDLEHRLQGSVMELLQGVDGVIKRTENVTLKKPETFPKNQRRVFRAPDLKGMLEVFRELTDVRRYWVDVTVAPNNISCAVISEDKRQVSSPKPQIIYGARGNYCTGILGSQSITSGKHYWEVDVSKKTAWILGVCAGFQPDAMCNIEKNENYQPKYGYWVIGLEEGVKCSAFQDSSFHTPSVPFIVPLSVIICPDRVGVFLDYEACTVSFFNITNHGFLIYKFSHCSFSQPVFPYLNPRKCGVPMTLCSPSS [human TRIM5α, 9-codon deletion at 334]",1.63 ± 1.7
5,"MASGILVNVKEEVTCPICLELLTQPLSLDCGHSFCQACLTANHKKSMLDKGESSCPVCRISYQPENIRPNRHVANIVEKLREVKLSPEGQKVDHCARHGEKLLLFCQEDGKVICWLCERSQEHRGHHTFLTEEVAREYQVKLQAALEMLRQKQQEAEELEADIREEKASWKTQIQYDKTNVLADFEQLRDILDWEESNELQNLEKEEEDILKSLTNSETEMVQQTQSLRELISDLEHRLQGSVMELLQGVDGVIKRTENVTLKKPETFPKNQRRVFRAPDLKGMLEVFRELTDVRRYWVDVTVAPNNISCAVISEDKRQVSSPKPQIIYGARGTRTFVNFNYCTGILGSQSITSGKHYWEVDVSKKTAWILGVCAGFQPDAMCNIEKNENYQPKYGYWVIGLEEGVKCSAFQDSSFHTPSVPFIVPLSVIICPDRVGVFLDYEACTVSFFNITNHGFLIYKFSHCSFSQPVFPYLNPRKCGVPMTLCSPSS [human TRIM5α, 2-codon deletion at 336]",0.604 ± 0.78
6,"MASGILVNVKEEVTCPICLELLTQPLSLDCGHSFCQACLTANHKKSMLDKGESSCPVCRISYQPENIRPNRHVANIVEKLREVKLSPEGQKVDHCARHGEKLLLFCQEDGKVICWLCERSQEHRGHHTFLTEEVAREYQVKLQAALEMLRQKQQEAEELEADIREEKASWKTQIQYDKTNVLADFEQLRDILDWEESNELQNLEKEEEDILKSLTNSETEMVQQTQSLRELISDLEHRLQGSVMELLQGVDGVIKRTENVTLKKPETFPKNQRRVFRAPDLKGMLEVFRELTDVRRYWVDVTVAPNNISCAVISEDKRQVSSPKPQIIYGARGTRYQTFVNFNYCTVNFNYCTGILGSQSITSGKHYWEVDVSKKTAWILGVCAGFQPDAMCNIEKNENYQPKYGYWVIGLEEGVKCSAFQDSSFHTPSVPFIVPLSVIICPDRVGVFLDYEACTVSFFNITNHGFLIYKFSHCSFSQPVFPYLNPRKCGVPMTLCSPSS [human TRIM5α, 7-codon duplication at 340]",0.135 ± 0.14
7,"MASGILVNVKEEVTCPICLELLTQPLSLDCGHSFCQACLTANHKKSMLDKGESSCPVCRISYQPENIRPNRHVANIVEKLREVKLSPEGQKVDHCARHGEKLLLFCQEDGKVICWLCERSQEHRGHHTFLTEEVAREYQVKLQAALEMLRQKQQEAEELEADIREEKASWKTQIQYDKTNVLADFEQLRDILDWEESNELQNLEKEEEDILKSLTNSETEMVQQTQSLRELISDLEHRLQGSVMELLQGVDGVIKRTENVTLKKPETFPKNQRRVFRAPDLKGMLEVFRELTDVRRYWVDVTVAPNNISCAVISEDKRQVSSPKPQIIYGARGTRYRYQTFVNFNYCTGILGSQSITSGKHYWEVDVSKKTAWILGVCAGFQPDAMCNIEKNENYQPKYGYWVIGLEEGVKCSAFQDSSFHTPSVPFIVPLSVIICPDRVGVFLDYEACTVSFFNITNHGFLIYKFSHCSFSQPVFPYLNPRKCGVPMTLCSPSS [human TRIM5α, 2-codon duplication at 335]",0.575 ± 0.48
8,"MASGILVNVKEEVTCPICLELLTQPLSLDCGHSFCQACLTANHKKSMLDKGESSCPVCRISYQPENIRPNRHVANIVEKLREVKLSPEGQKVDHCARHGEKLLLFCQEDGKVICWLCERSQEHRGHHTFLTEEVAREYQVKLQAALEMLRQKQQEAEELEADIREEKASWKTQIQYDKTNVLADFEQLRDILDWEESNELQNLEKEEEDILKSLTNSETEMVQQTQSLRELISDLEHRLQGSVMELLQGVDGVIKRTENVTLKKPETFPKNQRRVFRAPDLKGMLEVFRELTDVRRYWVDVTVAPNNISCAVISEDKRQVSSPKPQIIYGARGTRYNFNYCTGILGSQSITSGKHYWEVDVSKKTAWILGVCAGFQPDAMCNIEKNENYQPKYGYWVIGLEEGVKCSAFQDSSFHTPSVPFIVPLSVIICPDRVGVFLDYEACTVSFFNITNHGFLIYKFSHCSFSQPVFPYLNPRKCGVPMTLCSPSS [human TRIM5α, 4-codon deletion at 337]",1.12 ± 0.58
